Laboratory results as given in the RNAGym collection of RNA variant scans (doi:10.1093/nar/gkz1192).
The source gives no read counts; variants with many changes may rest on few reads.

B1: CPEB3 Ribozyme (parent)
chain: UAACAGGGGGCCACAGCAGAAGCGUUCACGUCGCAGCCCCUGUCAGAUUCUGGUGAAUCUGCGAAUUCUGCUGUAUAUCUC

Variants of: B1
Assay: self-cleavage, relative activity (ratio to wild type); higher = more cleavage; in vitro, sequencing
How it was run: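 Libraries of CPEB3 self-cleaving ribozyme mutants came from rounds of error-prone PCR and carried barcodes, which DNA sequencing matched to variants. In vitro transcription used T7 RNA polymerase at 37°C for 5 hours, with a further 15 min in DNase I before EDTA stopped the reaction; the ribozymes cleaved during both steps. The RNA was reverse transcribed with template switching and sequenced on Illumina. Relative activity is the cleaved/total read fraction of a variant divided by that of the unmutated ribozyme, averaged over three batches with at least 5 reads.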

Variant | self-cleavage
G9A G33U U41C | 0.07
G9A C11A G33U C37U U58A A65U | 0.04
G9A C40U A45G U60A | 0.06
G9A G22A G30A U31C U51C | 0.05
G9A U31A A47G U72A | 0.21
G9A A18G U43C A45G U51C U78C | 0.04
G9A U31C A35U A56G U67C U78A | 0.04
G9A U25A A35U U58C | 0.04
G9A C17U U31C U60C U80C | 0.05
G9A A20G C68A U74G | 0.01
G9A A35G U41C A45G A65G U78C U80A | 0.36
G9A U26C C32A U51A A64G | 0.05
G9A A35G A45U U49C U69C | 0.06
G9A U25C G30A A35U | 0.08
G9A C17U A20U U26A U60A U76C | 0.05
G9A C23G U25C G33A G36U | 0.05
G9A U25A U41C U43C C44U A47G | 0.06
G9A A21G G22U U26C U49C U54A A57G | 0.04
G9A A18G U41A G61C A64G U69C | 0.05
G9A U26A U80C | 0.27
G9A A18U A45C A57G | 0.05
G9A C14U U51G A57G C62U U78C | 0.05
G9A A28U A65G U69C U80C | 0.05
G9A A35U A45C U60C U76A | 0.06

Variant | self-cleavage
G9A A20G U43C A57G U69A | 0.16
G9A A35G U49C U54G U60A | 0.11
G9A A18G U41C A45U U48A | 0.12
G9A C62U U67A | 0.1
G9A A20G U25C A45G | 0.06
G9A C14A A20U U41C U54C A65G U80G | 0.01
G9A A28G U43C | 0.19
G9A U41A U66G U78C | 0.08
G9A U41C G53A A65G U69A | 0.1
G9A C62G U72G A75G | 0.03
G9A U26A U58A | 0.14
G9A G24A U51C A77G | 0.05
G9A G16A U41A U49C A56G U66C U67C | 0.04
G9A U25C U69C U78G | 0.12
G9A U25C U31C A77U | 0.27
G9A G19A U26A U67A G73A | 0.05
G9A U25C C38U A47U U72C A77G U80A | 0.13
G9A C11U A18U A35C U41C G70C | 0.05
G9A A57G A65U C71A A75G U76C | 0.04
G9A A28C A45G A56G A64G U72C | 0
G9A U31C A45U A64G | 0.07
G9A A45G U48C | 0.17
G9A A18U U31C | 0.37
G9A C11U G24C A35G U51C A56G U78C | 0.04

Variant | self-cleavage
G9A G10U A13U A18G A20U U43G | 0.08
G9A U26C U78C | 0.26
G9A C39G U41A A56G U60A U69C | 0.14
G9A A56C U58A U72C U78A | 0.05
G9A A20C U25C U72C U78C | 0.04
G9A C29G U54C | 0.17
G9A A18U A28G U54C | 0.24
G9A U41A U60C A64G | 0.04
G9A C32A A77U | 0.2
G9A C29U C38A U54A G70A U78C | 0.04
G9A G10C G30U | 0.13
G9A A21C U25C U26G U80G | 0.04
G9A G42U U49C U76A | 0.23
G9A G16U G19U U31C U41A G61U | 0.04
G9A A45G U60A | 0.14
G9A A56G U60A A64G U72C | 0.34
G9A U25C C32G U41C A57G U72A U80A | 0.03
G9A C23U U60C | 0.14
G9A A45G U78C | 0.06
G9A A20G U25C U41A | 0.14
G9A A20G C27U C29U A35G U43C A57G | 0.04
G9A U41A A45U U66C | 0.04
G9A U31G U74C | 0.08
G9A G24A C32U U43C | 0.11

Variant | self-cleavage
G9A C37A U49C A56G U80C | 0.05
G9A G30U G42A U80C | 0.19
G9A U25C G42A U54C A56G | 0.1
G9A U41C A47G U76C | 0.14
G9A A21G U25A U26C A45U U48C | 0.04
G9A A65G U69C | 0.12
G9A A35U U41C U80C | 0.36
G9A A56G A64U U72A U78A | 0.06
G9A U26A U41A U49A | 0.04
G9A C32A U58A A64G G73A A77G | 0.03
G9A U25C A45U U78C C81U | 0.05
G9A U25A A35U U67A | 0.05
G9A U26C A35U A47U A56G U58C U80C | 0.04
G9A C37U U58C | 0.05
G9A A18G U48A | 0.2
G9A A35C U41C U67C G70C | 0.09
G9A A28G A57U U76C | 0.18
G9A A64G U66G U74C U80C | 0.05
G9A U41A G61C U72G | 0.08
G9A A64G U78A | 0.17
G9A A20U U54C A77G U80C | 0.08
G9A C11U G24C A35G U51C U78C | 0.04
G9A A21U C40G U43C A45U U66C U78C | 0.06
G9A C11A G19A C23A A35G A45G U69A | 0.08

Variant | self-cleavage
G9A U25C A35G U43C U74A | 0.08
G9A A20U G22U U26C | 0.23
G9A G10U U69C G70U U80C | 0.23
G9A C37A U43A U58C A77U | 0.12
G9A A28G C29U | 0.06
G9A A45U U72A | 0.15
G9A A18G U26C A47G U67C U78G | 0.04
G9A U41C A47U U60C U67C U72C | 0.09
G9A A21U U25C U26G C38U U51C | 0.04
G9A A28G U43C U51A U74C | 0.08
G9A C32A U49C U69C A77U | 0.13
G9A C34A U54C | 0.18
G9A A18U G22A U31A U43C A45U | 0.06
G9A A28G U80A | 0.09
G9A U26C U54A | 0.21
G9A A20C U69C | 0.04
G9A A45U U58A A64G U80A | 0.04
G9A C12A G19U U66C | 0.13
G9A U31C A77G | 0.31
G9A U25C U41C A64U C81U | 0.05
G9A G19A C38U U78C | 0.19
G9A C12A A35G U78C | 0.16
G9A C11G U31A A45G U51C U66A U69C | 0.1
G9A A28G U67A U72A U76C A77G | 0.03

Variant | self-cleavage
G9A U25C U60G U72C | 0.3
G9A G53C A56G U80C | 0.24
G9A A47U A64U | 0.33
G9A A20U U72C | 0.29
G9A A28U A56G | 0.07
G9A G19A C40U U78A | 0.36
G9A G16A U25G U60C U72C C79A | 0.04
G9A U26C G30A A47G A57G U58A A77G | 0.04
G9A U26G A28U A35G A65G U72C | 0.07
G9A A20G A45U | 0.18
G9A A20U U25C A28G A57C A64G | 0.04
G9A U41C A45U U48C A57U U67C U74C | 0.03
G9A A20G A45G U69A | 0.26
G9A U26C A75G | 0.2
G9A A20G C32U U69A U80C | 0.05
G9A A64U A77G | 0.07
G9A A21U U80C | 0.11
G9A U25C U41A U48C U67C | 0.05
G9A C29A A57G A65G C71G U80C | 0.03
G9A G55A U72A | 0.07
G9A C14A C39U A45U | 0.05
G9A C23U U31C | 0.15
G9A A20G U25A U72C | 0.22
G9A A21G U31A A47G U78C | 0.19

Variant | self-cleavage
G9A C12U U43C U49C A56U U58A | 0.16
G9A A64U U72A U80A | 0.1
G9A C17A U76C | 0.32
G9A U26A A28G A57G | 0.16
G9A A20G G36A U43C U48C | 0.17
G9A C12U U43C U49C A56U | 0.05
G9A G10U A13G A18G U25C | 0.1
G9A C14U U80C | 0.65
G9A A20G U41C U43A A45U G55U | 0.09
G9A U25C U69A | 0.22
G9A U31A A57G | 0.18
G9A G19A U25C U43C A56G | 0.14
G9A C11G G19C U31A U60C A65G | 0.19
G9A A28U A57G U58C U78A | 0.08
G9A C12U A35G U67C | 0.08
G9A C12U G53A U60C U72C | 0.1
G9A G19U A35G U80C | 0.23
G9A C23U A35G A45G U54C U58C G70A | 0.15
G9A G30U G42A U67C U80C | 0.22
G9A U26A U51C | 0.23
G9A A21G G42A U66A | 0.1
G9A A18G U31A A45G A57G U66C | 0.21
G9A U26A A45G C59G | 0.05
